Read counts are not given, so values of variants with three or more changes are uncertain.
B1: CPEB3 Ribozyme (parent)
chain: UAACAGGGGGCCACAGCAGAAGCGUUCACGUCGCAGCCCCUGUCAGAUUCUGGUGAAUCUGCGAAUUCUGCUGUAUAUCUC

Variants of: B1
Experiment: self-cleavage, relative activity (ratio to wild type); higher = more cleavage; in vitro, sequencing
Outline: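 Libraries of CPEB3 self-cleaving ribozyme mutants came from rounds of error-prone PCR and carried barcodes, which DNA sequencing matched to variants. In vitro transcription used T7 RNA polymerase at 37°C for 5 hours, with a further 15 min in DNase I before EDTA stopped the reaction; the ribozymes cleaved during both steps. The RNA was reverse transcribed with template switching and sequenced on Illumina. Relative activity is the cleaved/total read fraction of a variant divided by that of the unmutated ribozyme, averaged over three batches with at least 5 reads.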

Row | Variant | self-cleavage
1 | UAACAGGGGGCCACAGCAGAAGCGCUCACGUCGCAGCCGCCGUCAGAUUCUGGUGAAUCUGCGAAUUCCGCUGUAUAUCUC [U25C C39G U41C U69C] | 0.06
2 | UAACAGGGGGCCACAGCAGAAGCGCUCACGUCGCAGCCCUUGUCAGAUACUGGUGAAUCUGCGAAUUCUGCUGUAUAUCUC [U25C C40U U49A] | 0.06
3 | UAACAGGGGGCCACAGCAGAAGCGCUCACGUCGCAGCCCUUGUCAGAUCCUGGUGAAUCUGCGAAUUCUGCUGCAUAUUUC [U25C C40U U49C U74C C79U] | 0.25
4 | UAACAGGGGGCCACAGCAGAAGCGCUCACGUCGCAGCCCCUGUUAGAUUCUGGUGAAUCCGCGAAUUCUGCCGUAUAUCUC [U25C C44U U60C U72C] | 0.09
5 | UAACAGGGGGCCACAGCAGAAGCGCUCACGUCGCAGCCCCUGUCAGAUUAUGGUGAAACUGCGAAUUCUGCUGUAUAUCUC [U25C C50A U58A] | 0.06
6 | UAACAGGGGGCCACAGCAGAAGCGCUCACGUCGCAGCCCCUGUCAGAUUCUGGUGAAUAUGUGAAUUCCGCUGCGUAUCUC [U25C C59A C62U U69C U74C A75G] | 0.03
7 | UAACAGGGGGCCACAGCAGAAGCGCUCACGUCGCAGCCCCUGUCAGAUUCUGGUGAAUCUGUGAAUCCUGCUGUAUAUCUC [U25C C62U U67C] | 0.13
8 | UAACAGGGGGCCACAGCAGAAGCGCUCACGUCGCAGCCCCUGUCAGAUUCUGGUGAAUCUGCGAAUUUUGCUGUAUGUCUC [U25C C68U A77G] | 0.4
9 | UAACAGGGGGCCACAGCAGAAGCGCUCACAUCGCAGCCCCUGUCUGAUUCUGGUGAGUCUGCGGAUUCUGCAGUAUGUCUC [U25C G30A A45U A57G A64G U72A A77G] | 0.09
10 | UAACAGGGGGCCACAGCAGAAGCGCUCACUUCGCAGCCCCUGUCAGAUCCUGGUGAAUCUGCGAAUUAUGCUGUUUAUCUC [U25C G30U U49C C68A A75U] | 0.11
11 | UAACAGGGGGCCACAGCAGAAGCGCUCACUUCGCAGCCCCUGUCAGAUUCUGGUGAACCUGUGAAUUCUGCUGUAUAUCUC [U25C G30U U58C C62U] | 0.11
12 | UAACAGGGGGCCACAGCAGAAGCGCUCACGUCACAGCCCCUGUCAAAUUCUGGUGAAUCUGCGAAUUCUGCUGUAUAUCUC [U25C G33A G46A] | 0.15
13 | UAACAGGGGGCCACAGCAGAAGCGCUCACGUCACAGCCCCUGUCAGAUCCUGGUGAGUCUGCGAGUUCUGCUGUAUUUCUC [U25C G33A U49C A57G A65G A77U] | 0.04
14 | UAACAGGGGGCCACAGCAGAAGCGCUCACGUCACAGCCCCUGUCAGAUUCAGGUGAAUCUGCGAAUUCUGCUGUAUAUCUC [U25C G33A U51A] | 0.21
15 | UAACAGGGGGCCACAGCAGAAGCGCUCACGUCCCAGCCCCUGUCAGAUUCUGGUGAACCUGCGAAUUCUGCUGUAUAUCUC [U25C G33C U58C] | 0.12
16 | UAACAGGGGGCCACAGCAGAAGCGCUCACGUCUCAGCCCCCGUCAGAUUCAGAUGAAUCUGCGAAUUCUGCUGUAUAUCUC [U25C G33U U41C U51A G53A] | 0.13
17 | UAACAGGGGGCCACAGCAGAAGCGCUCACGUCUCAGCCCCUGUCAGAUACUGGUGGACCUGCGAAUUCUGCUGUAUAUCCC [U25C G33U U49A A56G U58C U80C] | 0.06

Row | Variant | self-cleavage
18 | UAACAGGGGGCCACAGCAGAAGCGCUCACGUCUCAGCCCCUGUCAGAUUCUGGUGAAUCUGCGAAUUCUGCUGUAUAUCCC [U25C G33U U80C] | 0.55
19 | UAACAGGGGGCCACAGCAGAAGCGCUCACGUCGCAACACCUGUCAGAUCCUGGUGAUUCUGCGAAUUCUGUUGUAUAUCUC [U25C G36A C38A U49C A57U C71U] | 0.09
20 | UAACAGGGGGCCACAGCAGAAGCGCUCACGUCGCAACCCCUGCCAGAUUCUGGUGAAUCUGCGAACUCUGCUGUAUAUCUC [U25C G36A U43C U66C] | 0.31
21 | UAACAGGGGGCCACAGCAGAAGCGCUCACGUCGCACCCCCUGUCUGAUUCUGGUGAAUCCGCGAAUCCUGCUGUAUAUCUC [U25C G36C A45U U60C U67C] | 0.07
22 | UAACAGGGGGCCACAGCAGAAGCGCUCACGUCGCACCCCCUGUCAGAUUCUGGCGAACCUGCGAAUUCUGCUGUAUAUCUC [U25C G36C U54C U58C] | 0.17
23 | UAACAGGGGGCCACAGCAGAAGCGCUCACGUCGCAGCCCCUCCCAGAUCCUGGUGAAUCUGCGAAUACUGCUGUAUACCUC [U25C G42C U43C U49C U67A U78C] | 0
24 | UAACAGGGGGCCACAGCAGAAGCGCUCACGUCGCAGCCCCUGUCAAAUUCUGGUGAAUCUGCGAAUUCUGCUGUAUGUCUC [U25C G46A A77G] | 0.07
25 | UAACAGGGGGCCACAGCAGAAGCGCUCACGUCGCAGCCCCUGUCAGAUUCUGAUGAGUCUGCGAAUUCUGCUGUAUGUCCC [U25C G53A A57G A77G U80C] | 0.36
26 | UAACAGGGGGCCACAGCAGAAGCGCUCACGUCGCAGCCCCUGUCAGAUUCUGGUGAAUCUACGAAUUCCGCUGUAUAUCUC [U25C G61A U69C] | 0.29
27 | UAACAGGGGGCCACAGCAGAAGCGCUCACGUCGCAGCCCCUGUCAGAUUCUGGUGAAUCUCCGAAUCCUGCUGUAUAUCUC [U25C G61C U67C] | 0.13
28 | UAACAGGGGGCCACAGCAGAAGCGCUCACGUCGCAGCCCCUGUCAGAUUCUGGUGAAUCUGCAACCUCUGCUGUAUAUCUC [U25C G63A A65C U66C] | 0.12
29 | UAACAGGGGGCCACAGCAGAAGCGCACACGUCGCAGCCCCUGUCGGAUUCUGGUGAAUCUGCGAAUUCUGCUGUUUAUCUC [U25C U26A A45G A75U] | 0.34
30 | UAACAGGGGGCCACAGCAGAAGCGCACACGCCGUAGCCCCUGUCAGGUUCUGGUGAAUCUGCGAAUUCUGCUGUAUAUCUC [U25C U26A U31C C34U A47G] | 0.04
31 | UAACAGGGGGCCACAGCAGAAGCGCACACGUCGCAGCCCCGGUCAGAUUCUGGUGAAUCUGCGAAUUCUGCUGUAUAUCUC [U25C U26A U41G] | 0.31
32 | UAACAGGGGGCCACAGCAGAAGCGCACACGUCGCAGCCCCUGUCAGAUACUGGUGAAUCUGCGAAUUCUUCUGUAUAUCUC [U25C U26A U49A G70U] | 0.13
33 | UAACAGGGGGCCACAGCAGAAGCGCACACGUCGCAGCCCCUGUCAGAUUCUGGUGAAUCUGCGAAUUCUGCUGCAUUUCUC [U25C U26A U74C A77U] | 0.2
34 | UAACAGGGGGCCACAGCAGAAGCGCCCGCGUCGCAGCCCCUGUCAGAUUCUGGCGAAUCUGCGAAUUCUGCUGUAUGUCUC [U25C U26C A28G U54C A77G] | 0.25

From the RNAGym collection of RNA variant scans (doi:10.1093/nar/gkz1192)
